According to PubChem BioAssay AID588855 (National Center for Advancing Translational Sciences (NCATS), 2011):
Among all 410,000 compounds or so, about 5,000 (1.2%) were called active. This list was built around the results that the source calls inconclusive (neither active nor inactive); the mix of calls is not that of the screen. The call rests on the fitted dose curve; in most records, active means well fitted inhibition curve with a large enough effect; inconclusive means small, poorly fitted or top-dose-only effect; inactive means no such curve, though single readings can be large or run the other way. Potencies beside an inconclusive call are fits to weak or partial responses and may not hold up.

Assay: qHTS for Inhibitors of TGF-b; further: nearly all actives have a fitted effect of over 65% in size
Settings: HepG2 CAGA-GFP TGF-b/SMAD3 reporter, GFP fluorescence, 18 h, TGF-beta stimulated, 500 pg/mL final; series mostly up to 46.1 µM; activity, negative = inhibition: at the top concentration
In short: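 Smad-responsive CAGA-GFP expression was quantified in HEPG2 cells exposed to compounds and 500 pg/mL final TGF-beta for 18 h at 37 degrees C; unstimulated wells defined full inhibition.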
On the % scale 0 is the no-effect control and ±100 the full control effect; potency means the concentration at half of the fitted maximal effect; tags describe the fitted curve by direction and shape.

With `O=C(CC1SC(=Nc2ccccc2)N(Cc2ccccn2)C1=O)Nc1ccc(Br)cc1` (stereo not drawn) as the compound, how does the Potency read?
Its Potency is inconclusive: 35.5 µM [inhibitor, partial curve, poor fit].

For `O=C(Nc1ccc(OC(F)(F)F)cc1)c1ccc2nc[nH]c2c1`, which “activity, negative = inhibition” value is on record?
Its value is inactive: -5.04%.

For `CCc1ccc(-c2[nH]nc3nc(-c4ccc(OC)cc4)cc(C(=O)NCCc4ccc(OC)c(OC)c4)c23)cc1`, which Potency is on record?
The Potency was active: 10 µM.

With `CC(C)c1ccc(NC(=O)NC2CC3CCC(C2)N3Cc2cccs2)cc1` (stereo not drawn) as the compound, how does the “activity, negative = inhibition” value read?
Its value is inactive: 6.14%.

With `CCC(C(=O)c1ccc2ncccc2c1)c1ccccc1` (stereo not drawn) as the compound, how does the Potency read?
Its Potency is inconclusive: 35.5 µM [inhibitor, single point].

For `CCOc1ccc(NC(=O)CSc2nnc(CNC(=O)c3c(F)cccc3Cl)o2)cc1`, which Potency is on record?
Its Potency is inconclusive: 7.94 µM [inhibitor, partial curve, poor fit].

For `CCN(CC)CC1CN(N=Cc2ccc([N+](=O)[O-])o2)C(=O)O1` (stereo not drawn), which Potency is on record?
Its Potency is inconclusive: 25.1 µM [inhibitor, single point].

With `COc1ccc(C2C3=C(CC(C)(C)CC3=O)Nc3n[nH]c(C)c32)cc1` (stereo not drawn) as the compound, how does the Potency read?
The Potency was inconclusive: 35.5 µM [inhibitor, single point].

For `Cc1ccccc1-c1cc(C(=O)NCc2ccc3c(c2)OCO3)nn1CC1CC(c2cccc([N+](=O)[O-])c2)=NO1` (stereo not drawn), which “activity, negative = inhibition” value is on record?
Its value is inactive: -17.7%.

For `CN1CCN(c2ccc(NC(=O)c3ccc(Oc4ccccc4)cc3)cc2)CC1`, which Potency is on record?
The Potency was inconclusive: 35.5 µM [inhibitor, single point].

Which Potency does the source give for `Cc1cccc(OCC(O)CN2CCN(CCN3C(=O)c4cccc5cccc(c45)C3=O)CC2)c1C` (stereo not drawn) here?
Its Potency is inconclusive: 35.5 µM [inhibitor, single point].

With `CCN1CCN(c2ncc3c(n2)CCN(Cc2ccc(Br)s2)C3)CC1` as the compound, how does the “activity, negative = inhibition” value read?
Its value is inactive: 63.1%.

Which Potency does the source give for `CN(C)C1CCN(Cc2cc(COCc3ccccc3)c3cccnc3c2O)C1` (stereo not drawn) here?
Its Potency is inconclusive: 2.51 µM [inhibitor, full curve, poor fit].

For `COc1ccccc1/C=C/C=N/NC(=O)c1ccco1`, which Potency is on record?
The Potency was inconclusive: 11.2 µM [inhibitor, partial curve, poor fit].

For `COc1ccc2nc(NC(=O)C3CCCN3S(=O)(=O)c3ccc(C)cc3)sc2c1` (stereo not drawn), which Potency is on record?
The Potency was inconclusive: 4.47 µM [inhibitor, partial curve, poor fit].

With `O=C(O)c1ccccc1-n1cccc1C(=O)O` as the compound, how does the Potency read?
Its Potency is inconclusive: 2.82 µM [inhibitor, single point].

With `Cc1ccc(S(=O)(=O)N2CCCCC2)cc1NC(=O)c1ccco1` as the compound, how does the “activity, negative = inhibition” value read?
The value was inactive: 3.39%.

For `Cc1ccccc1CN1C(=O)c2ccccc2Sc2ccc(C(=O)NCc3cccs3)cc21`, which Potency is on record?
Its Potency is inconclusive: 0.794 µM [inhibitor, full curve, poor fit].

Which Potency does the source give for `Cc1noc(/C=C/c2ccccc2F)c1S(=O)(=O)N1CCC(C(=O)N(C)Cc2ccco2)CC1` here?
Its Potency is inconclusive: 1 µM [inhibitor, full curve, poor fit].

With `CCC(=O)N1CCc2cc(Br)cc(S(=O)(=O)N3CCCC(C(=O)NCc4ccccc4)C3)c21` (stereo not drawn) as the compound, how does the Potency read?
Its Potency is inconclusive: 22.4 µM [inhibitor, single point].

Which Potency does the source give for `CCOC(=O)N/N=C/c1cn(Cc2ccc(Cl)cc2)c2ccccc12` here?
The Potency was active: 12.6 µM.

Which “activity, negative = inhibition” value does the source give for `COc1ccc(CCN2C(=O)CC(NNC(=O)c3ccc(F)cc3)C2=O)cc1OC` (stereo not drawn) here?
The value was inactive: -13.2%.

With `Cc1ccccc1Oc1ccc2c(c1)[C@@H]1C[C@H](N(C)C(=O)Nc3cc(Cl)cc(Cl)c3)[C@H]([C@H](C)O)C(=O)N1CC2` as the compound, how does the “activity, negative = inhibition” value read?
Its value is inactive: -25.5%.

Which Potency does the source give for `O=C(NCc1nc2cccnc2n1Cc1ccc(F)cc1)c1ccccc1C(F)(F)F` here?
Its Potency is inconclusive: 35.5 µM [inhibitor, single point].

Which Potency does the source give for `COC(=O)/C(=N\Nc1ccc(Cl)cc1)Sc1nnc(-c2ccc(OC)cc2)n1C` here?
Its Potency is inconclusive: 14.1 µM [inhibitor, partial curve, poor fit].

For `Cc1c(C(=O)Nc2ccncc2)sc2nc(-c3ccc(F)cc3)cn12`, which “activity, negative = inhibition” value is on record?
The value was inactive: -25.2%.

With `C[C@H](O)[C@@H]1CN2CCc3c([nH]c4ccccc34)[C@@H]2C[C@@H]1N(C)C(=O)Nc1ccc(Br)cc1` as the compound, how does the Potency read?
The Potency was inconclusive: 10 µM [inhibitor, partial curve, poor fit].

Which Potency does the source give for `Cc1ccc(CNC(=O)c2cc(-c3ccccc3)nn2Cc2cc(C)no2)cc1` here?
Its Potency is inconclusive: 25.1 µM [inhibitor, single point].

With `CC1(C(=O)Nc2ccc(F)cc2F)CCN1C(=O)Cc1ccc(Cl)cc1Cl` (stereo not drawn) as the compound, how does the “activity, negative = inhibition” value read?
The value was inactive: -4.28%.

For `CCN(c1ccccc1)S(=O)(=O)c1ccc(C(=O)Nc2nnc(COC)o2)cc1`, which Potency is on record?
The Potency was inconclusive: 35.5 µM [inhibitor, single point].

Which Potency does the source give for `COCCNC(=O)C1CCN(S(=O)(=O)c2ccccc2)CC1` here?
Its Potency is inconclusive: 5.62 µM [inhibitor, single point].

For `CC1CCCN(S(=O)(=O)c2cc(C(=O)NCc3ccco3)ccc2Cl)C1` (stereo not drawn), which Potency is on record?
Its Potency is inconclusive: 28.2 µM [inhibitor, single point].

With `CCOC(=O)Cn1nc(/C=C/c2ccc(C(C)C)cc2)ccc1=O` as the compound, how does the Potency read?
The Potency was inconclusive: 31.6 µM [inhibitor, single point].

For `O=C(O)CCC(=O)N1N=C(c2cccs2)CC1c1cn(-c2ccccc2)nc1-c1ccccc1` (stereo not drawn), which Potency is on record?
Its Potency is inconclusive: 35.5 µM [inhibitor, single point].

With `COc1ccc(-n2cnc(=S)[nH]c2=S)cc1` as the compound, how does the Potency read?
Its Potency is inconclusive: 35.5 µM [inhibitor, single point].

For `CC1Cc2nc(SCC(=O)Nc3ccc(F)cc3)n(C)c(=O)c2S1` (stereo not drawn), which “activity, negative = inhibition” value is on record?
Its value is inactive: -9.58%.

For `CC(C)CCn1nnnc1CN1CCN(C(c2ccccc2)c2ccccc2)CC1`, which Potency is on record?
Its Potency is inconclusive: 35.5 µM [inhibitor, single point].

With `COC(=O)Cc1ccc(NC(=S)N2CCN(c3cc(Cl)ccc3C)CC2)cc1` as the compound, how does the Potency read?
Its Potency is inconclusive: 35.5 µM [inhibitor, single point].

For `CCOc1ccc(N2C(=O)CC(N)C2=O)cc1` (stereo not drawn), which Potency is on record?
Its Potency is inconclusive: 10 µM [inhibitor, partial curve, poor fit].

For `CCOC(=O)C1(CCc2ccccc2)CCN(Cc2ccc(O)cc2)CC1`, which Potency is on record?
Its Potency is inconclusive: 10 µM [inhibitor, partial curve].

For `Cc1onc(-c2ccccc2Cl)c1C(=O)N1CCN(C/C=C/c2ccccc2)CC1`, which Potency is on record?
The Potency was inconclusive: 35.5 µM [inhibitor, single point].

Which Potency does the source give for `CN1C(=O)C(CC(=O)Nc2ccc(F)cc2)N(CCCc2ccccc2)C1=S` (stereo not drawn) here?
The Potency was inconclusive: 35.5 µM [inhibitor, single point].

Which “activity, negative = inhibition” value does the source give for `Cc1nnc2c(Nc3cccc(O)c3)nc3ccccc3n12` here?
Its value is inactive: -6.18%.

Which Potency does the source give for `N#CC1(c2ccc(NC(=O)c3ccccc3F)cc2)CCCC1` here?
Its Potency is inconclusive: 25.1 µM [inhibitor, single point].

With `CCCCOc1ccc2c(c1)C(=O)c1cc(O)ccc1-2` as the compound, how does the Potency read?
The Potency was inconclusive: 5.62 µM [inhibitor, partial curve].

Which “activity, negative = inhibition” value does the source give for `CCOc1ccc(CCNC(=O)COC(=O)c2sccc2C)cc1OCC` here?
Its value is inactive: -29.3%.

Which Potency does the source give for `Cc1ccc(OCC(=O)N2N=C(C(F)(F)F)CC2(O)C(C)(C)C)cc1C` (stereo not drawn) here?
The Potency was inconclusive: 35.5 µM [inhibitor, single point].

Which “activity, negative = inhibition” value does the source give for `CCOc1ccc(S(=O)(=O)N(C)c2ccc(OCC(=O)N3c4ccc(C)cc4C4CN(C)CCC43)cc2)cc1` (stereo not drawn) here?
The value was inactive: -3.59%.

For `COc1ccccc1NC(=O)Nc1ccc(NC(=O)c2ccccc2O)cc1`, which “activity, negative = inhibition” value is on record?
The value was inactive: -13.4%.

For `COc1cccc(N=Cc2ccc(O)cc2O)c1`, which “activity, negative = inhibition” value is on record?
Its value is inactive: -4.81%.

Which Potency does the source give for `CCNc1nc(NCc2ccccc2)nc(SCC(=O)Nc2ccccc2)n1` here?
Its Potency is inconclusive: 35.5 µM [inhibitor, single point].

With `COc1ccc(/C=N/NC(=O)c2ccc(NC(=O)c3cccc([N+](=O)[O-])c3)cc2)c(OC)c1` as the compound, how does the “activity, negative = inhibition” value read?
Its value is inactive: 13.9%.

Which “activity, negative = inhibition” value does the source give for `CC(C)Cc1nc2oc3c(=O)[nH]cnc3c2c2c1CCCC2` here?
The value was inactive: 2.75%.

Which “activity, negative = inhibition” value does the source give for `CCOP(=O)(OCC)C(Nc1ccccc1)c1ccco1` (stereo not drawn) here?
Its value is inactive: -0.773%.

With `Cc1ccc(S(=O)(=O)NCC(=O)N(c2ccccc2)C(C(=O)NCc2ccccc2)c2ccco2)cc1` (stereo not drawn) as the compound, how does the Potency read?
The Potency was inconclusive: 3.55 µM [inhibitor, partial curve, poor fit].

For `Cc1ccc2c(c1)N(C(=O)NCc1ccccc1)CCO2`, which Potency is on record?
Its Potency is inconclusive: 35.5 µM [inhibitor, single point].

With `Cc1ccc(NC(=O)CN2C(=O)N/C(=C/c3ccc(C)o3)C2=O)cc1` as the compound, how does the Potency read?
Its Potency is inconclusive: 3.16 µM [inhibitor, single point].

Which “activity, negative = inhibition” value does the source give for `COc1cc(C2c3c(-c4ccccc4)n[nH]c3C(=O)N2c2ccccc2)ccc1O` (stereo not drawn) here?
Its value is inactive: -5.27%.

Which “activity, negative = inhibition” value does the source give for `C/C(=N\NC(=O)c1ccccc1)c1ccc(N2CCOCC2)cc1` here?
The value was inactive: 38.3%.

For `CC1OC(CC(=O)O)CC2=C1C(=O)c1c(O)cccc1C2=O` (stereo not drawn), which Potency is on record?
The Potency was inconclusive: 0.891 µM [inhibitor, partial curve, poor fit].

Which “activity, negative = inhibition” value does the source give for `O=C(OCC(=O)N1CCC(Cc2ccccc2)CC1)c1cccnc1Cl` here?
Its value is inactive: -9.68%.

Which Potency does the source give for `O=C(c1ccc2oc(Cc3ccc(Cl)cc3)nc2c1)N1CCCCC1CCO` (stereo not drawn) here?
Its Potency is inconclusive: 3.16 µM [inhibitor, single point].

With `COc1ccc(NC(=O)C2CCCN(S(=O)(=O)c3ccc(Br)s3)C2)cc1` (stereo not drawn) as the compound, how does the “activity, negative = inhibition” value read?
The value was inactive: -26.8%.

Which Potency does the source give for `O=C1C2C3CCCC3=C3CCCC3C2C(=O)N1c1ccc(Cl)cc1` (stereo not drawn) here?
The Potency was inconclusive: 31.6 µM [inhibitor, single point].

With `CCO[C@H]1OC(C(=O)N2CCN(Cc3ccc4c(c3)OCO4)CC2)=C[C@@H](c2ccc(Br)cc2)[C@@H]1CCCO` as the compound, how does the Potency read?
The Potency was inconclusive: 17.8 µM [inhibitor, partial curve, poor fit].

For `Cn1cnc(S(=O)(=O)N2CCCC(c3cc(C(=O)Nc4ccc(F)c(Cl)c4)no3)C2)c1` (stereo not drawn), which “activity, negative = inhibition” value is on record?
The value was inactive: 33.1%.

For `CC(C)N1CCCC(C)(C(=O)Nc2nc3ccccc3[nH]2)C1` (stereo not drawn), which “activity, negative = inhibition” value is on record?
Its value is inactive: 7.75%.

For `CC(=O)Oc1cc2cccc(OC(C)=O)c(=O)c2c(OC(C)=O)c1OC(C)=O`, which Potency is on record?
Its Potency is inconclusive: 12.6 µM [inhibitor, single point].
